# From PubChem BioAssay AID434955 (Southern Research Specialized Biocontainment Screening …, 2010)
# This is one part of the list. Further columns of the screen follow, without active or inactive calls. Compounds called inactive in the main read-out are mostly missing here.
# Experiment: beta-lactam sensitization of Mtb H37Rv, H37Rv (AID 434955);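 also: growth measured after seven days incubation then overnight dye step; 0% = bacteria only wells and 100% = bacteria with antibiotic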
# Conditions: M. tuberculosis H37Rv growth with meropenem, percent inhibition; measured here: primary screen without meropenem; at 25 µM
row,Structure (SMILES),inhibition [%]
1,Oc1ccc2nnc3c(Br)cnn3c2c1,-0.91
2,CN(Cc1nccs1)C(=O)c1ccc(OC2CCN(Cc3ccccn3)CC2)cc1,-2.34
3,Cc1nc2nc(-c3ccc(F)cc3)cn2nc1C,-3.44
4,COc1ccccc1OCC(=O)N1CCCC(Nc2cccc(F)c2)C1 (stereo not drawn),0.24
5,Cc1ccnc(NS(=O)(=O)c2ccc(NC(=O)C34CC5CC(CC(C5)C3)C4)cc2)n1,7.5
6,CC(C)(C)Nc1nc(Cl)nc(NC(C)(C)C)n1,3.43
7,COc1cccc(C2C(C(N)=O)=C(C)Nc3nc(CCCO)nn32)c1 (stereo not drawn),3.09
8,Cn1c(CNC(=O)c2ccco2)nnc1SCC(=O)c1ccc(F)cc1,-2.19
9,CCC1C(C#N)=C(N)OC2=C1C(=O)CC(C)(C)C2 (stereo not drawn),2.52
10,C=CCn1c(=O)[nH]c2cc(C(=O)N3CCN(c4cc(C)ccc4C)CC3)ccc2c1=O,-6.01
11,CC(=O)c1ccccc1NC(=O)COC(=O)/C=C/c1ccc(C)o1,26.6
12,O=C(NC1CCCc2c1cnn2-c1ccc(F)cc1F)c1ccccc1N1CCOCC1 (stereo not drawn),-4.15
13,C=CCn1c(C)c(C(C)=O)c(SC)nc1=S,7.33
14,O=C(CNC(=O)c1ccccc1)NCC(=O)OCC(=O)c1ccc(F)cc1,-2.5
15,Cc1ccc(SCC(=O)O/N=C(\N)c2cccnc2)cc1,-1.64
16,C=CCNC1=C(Cl)C(=O)N(c2cccc(Cl)c2Cl)C1=O,10.1
17,C=CCSc1nc(-c2ccccc2)c(C#N)c(=O)[nH]1,-2.05
18,Cc1ccc(C2(C)NC(=O)N(CC(=O)Nc3ccc4c(c3)OCO4)C2=O)cc1 (stereo not drawn),-4.8
19,CC1CCc2nn(CC(=O)NCc3ccc4c(c3)OCO4)cc2C1 (stereo not drawn),-1.77
20,O=C(C1=C[C@H](c2ccc(Br)cc2)C[C@H](OCc2ccc(CO)cc2)O1)N1CCN(Cc2ccc3c(c2)OCO3)CC1,40.8
21,CCOc1cc(N2CCOCC2)c(OCC)cc1NC(=O)COc1cccc(CC)c1,79.3
22,O=C(COc1ccccc1)NNC(=O)c1cc2ccccc2oc1=O,-4.55
23,COc1cccc(-c2nnn(CC(=O)Nc3cc(OC)c(NC(=O)c4ccco4)cc3OC)n2)c1,42.2
24,Cc1cc(C(=O)N2CCCC(N3CCN(c4cccc(C(F)(F)F)c4)CC3)C2)c(C)o1 (stereo not drawn),-7.78
25,N=c1n(CC(=O)c2ccc([N+](=O)[O-])cc2)c2ccccc2n1Cc1ccccc1,-0.4
26,O=C(c1cccc(-c2ccccc2F)c1)N1CC[C@@H](N2CCC(O)CC2)[C@H](O)C1,-1.12
27,COc1ccccc1NC(=O)CSc1nc2nccnc2c(=O)n1Cc1cccs1,-1.51

row,Structure (SMILES),inhibition [%]
1,COc1ccccc1C1C(C(=O)NCc2ccccc2)=C(C)Nc2ncnn21 (stereo not drawn),-5.08
2,CCCCCCc1ccc(OCC(=O)O)cc1OCC(=O)O,-13.1
3,O=C(CSc1nnc(CNc2ccc(F)cc2)o1)N1c2ccccc2Sc2ccccc21,39.9
4,O=C(CSc1nnc(-c2cnccn2)n1Cc1ccco1)Nc1ccc(Br)cc1,36
5,O=C(CSc1nnc2c(n1)[nH]c1ccccc12)Nc1ccc2c(c1)OCO2,0.35
6,Cc1cc(C(=O)CSc2nnc(N)s2)c(C)n1Cc1cccs1,1.63
7,CC(C)CNc1oc(-c2ccc(F)cc2)nc1C#N,-4.1
8,O=C(Nc1c2c(nc3ccccc13)CCCC2)c1ccccc1F,-2.4
9,CC1CCCN(C(=O)C2CCN(c3nc(-c4ccccc4)nc4c3CCC4)CC2)C1 (stereo not drawn),8.84
10,O=C(O)CN1C(=O)C2(OCCCO2)c2ccccc21,-1.29
11,CSc1ccc(C(=O)C2CCCN(C(=O)CCc3cnn(C)c3)C2)cc1 (stereo not drawn),-11.1
12,CCc1ccc(OCC2c3cc(OC)c(OC)cc3CCN2C(C)=O)cc1 (stereo not drawn),10.2
13,CCn1cc(CN2CCC(n3nccc3NC(=O)c3ccccc3C)CC2)cn1,-14.3
14,CC1(C)S[C@@H]2[C@H](NC(=O)Cc3ccccc3)C(=O)N2[C@H]1C(=O)O,-10.3
15,CCC(=O)Nc1ccc(-c2ccc(N3CCN(C)CC3)nn2)cc1,-1.82
16,Cc1cccc(C)c1OCc1cc(C(=O)N2CCCCCCC2)no1,9.17
17,O=c1cc(C(F)(F)F)nc(SC/C=C/c2ccccc2)[nH]1,-4.55
18,c1csc(-c2csc3nc(CN4CCOCC4)nc(NCc4ccc5c(c4)OCO5)c23)c1,84.7
19,COc1ccc(/C=C2\N=C(SC)N(c3ccccc3OC)C2=O)cc1,41.2
20,COc1ccc(S(=O)(=O)N2CCSC2c2ccccc2)cc1 (stereo not drawn),9
21,O=C(NCc1ccco1)c1ccc2c(c1)N(Cc1ccccc1)C(=O)CS2=O (stereo not drawn),-3.55
22,N=c1n(CC(=O)c2ccc(Br)cc2)c2ccccc2n1Cc1ccccc1,85.9
23,CCOC(=O)c1c(NC(=O)CCS(=O)(=O)c2ccccc2)sc2c1CCN(C)C2,-7.11
24,CCCn1nc(NC(=O)CC(C)C)c2cc3ccccc3nc21,13.6
25,COc1ccc(C(=O)Oc2ccc3oc(=O)sc3c2)cc1,46.1
26,Cc1cc(OCC(=O)N2CCN(c3ccccn3)CC2)cc(C)c1Br,9.21
